This is one part of the list. Single values are uncertain, as repeats are few or missing.
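Also: cells treated in 1,536-well plates, then fixed and DAPI-stained, with nuclei counted from automated high-throughput microscope images.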

For this assay, the system named is A2058. In words: cell count relative to DMSO control; melanoma cells; higher = more viable cells. The conditions noted are these: library dose: standard library concentration; 72 h.
`O=c1[nH]nc(Sc2ncc([N+](=O)[O-])s2)n1-c1ccc2c(c1)OCCO2` + CN(C)S(=O)(=O)c1ccc2c(c1)/C(=C/c1cc3c([nH]1)CCCC3)C(=O)N2 [SU6656] (first compound 1 µM, partner dose 2 µM) came in with a cell count of 81.5%.
The figure for `O=c1[nH]nc(Sc2ncc([N+](=O)[O-])s2)n1-c1ccc2c(c1)OCCO2` + CNC(=O)c1cc(Oc2ccc(NC(=O)Nc3ccc(Cl)c(C(F)(F)F)c3)cc2)ccn1 [sorafenib] (first compound 1 µM, partner dose 2 µM) is 93.5%.
The same measure for `O=c1[nH]nc(Sc2ncc([N+](=O)[O-])s2)n1-c1ccc2c(c1)OCCO2` + Nc1ncn([C@H]2C[C@H](O)[C@@H](CO)O2)c(=O)n1 [decitabine] (first compound 1 µM, partner dose 0.5 µM): 69.2%.
The same measure for `COc1cc(Nc2ncc(F)c(Nc3ccc4c(n3)NC(=O)C(C)(C)O4)n2)cc(OC)c1OC` [Tamatinib] + Cc1cc(N2CCOCC2)cc2[nH]c(-c3c(NC[C@@H](O)c4cccc(Cl)c4)cc[nH]c3=O)nc12 [BMS536924] (first compound 2 µM, partner dose 1 µM): 71.9%; for `COc1cc(Nc2ncc(F)c(Nc3ccc4c(n3)NC(=O)C(C)(C)O4)n2)cc(OC)c1OC` [Tamatinib] + CN(C)S(=O)(=O)c1ccc2c(c1)/C(=C/c1cc3c([nH]1)CCCC3)C(=O)N2 [SU6656] (first compound 2 µM, partner dose 2 µM): 73%; for `COc1cc(Nc2ncc(F)c(Nc3ccc4c(n3)NC(=O)C(C)(C)O4)n2)cc(OC)c1OC` [Tamatinib] + CO[C@@H]1[C@H](N(C)C(=O)c2ccccc2)C[C@H]2O[C@]1(C)n1c3ccccc3c3c4c(c5c6ccccc6n2c5c31)C(=O)NC4 [Midostaurin] (first compound 2 µM, partner dose 0.4 µM): 43.1%.
For the compound `O=c1[nH]nc(Sc2ncc([N+](=O)[O-])s2)n1-c1ccc2c(c1)OCCO2` + C=CCNC1=C2C[C@@H](C)C[C@H](OC)[C@H](O)[C@@H](C)/C=C(\C)[C@H](OC(N)=O)[C@@H](OC)/C=C\C=C(/C)C(=O)NC(=CC1=O)C2=O [Tanespimycin] (first compound 1 µM, partner dose 0.01 µM), the cell count worked out at 54.8%.
Turning to `O=C(O)c1ccc(-c2c[nH]c3ncc(-c4ccccc4)cc23)cc1C1CCCC1` + COc1cc2c(Oc3ccc4[nH]c(C)cc4c3F)ncnc2cc1OCCCN1CCCC1 [cediranib] (first compound 0.8 µM, partner dose 2 µM), the cell count is 81.3%.
The same measure for `O=c1[nH]nc(Sc2ncc([N+](=O)[O-])s2)n1-c1ccc2c(c1)OCCO2` + CN1CCN(c2ccc3nc(-c4c(N)c5c(F)cccc5[nH]c4=O)[nH]c3c2)CC1 [Dovitinib] (first compound 1 µM, partner dose 0.5 µM): 23%; for `CC1(C)NC(=O)N(c2ccc([N+](=O)[O-])c(C(F)(F)F)c2)C1=O` [nilutamide] + Cc1ccc(NC(=O)c2cccc(N(C)C)c2)cc1NC(=O)c1ccc(O)cc1 [ZM336372] (first compound 5 µM, partner dose 10 µM): 103%; for `O=c1[nH]nc(Sc2ncc([N+](=O)[O-])s2)n1-c1ccc2c(c1)OCCO2` + Cn1sc(=O)n(Cc2ccccc2)c1=O [TDZD-8] (first compound 1 µM, partner dose 2 µM): 13.2%.
The same measure for `COc1cc(Nc2ncc(F)c(Nc3ccc4c(n3)NC(=O)C(C)(C)O4)n2)cc(OC)c1OC` [Tamatinib] + NCC(=O)Nc1ccc(-n2nc(C(F)(F)F)cc2-c2ccc3c(ccc4ccccc43)c2)cc1 [OSU03012] (first compound 2 µM, partner dose 5 µM): 75.6%.
The figure for `Cn1cncc1[C@@](N)(c1ccc(Cl)cc1)c1ccc2c(c1)c(-c1cccc(Cl)c1)cc(=O)n2C` [tipifarnib] + O=C(O)c1ccc(-c2c[nH]c3ncc(-c4ccccc4)cc23)cc1C1CCCC1 [GSK650394] (first compound 0.05 µM, partner dose 0.8 µM) is 73.8%; for `CC1(C)NC(=O)N(c2ccc([N+](=O)[O-])c(C(F)(F)F)c2)C1=O` [nilutamide] + CO[C@@H]1[C@H](N(C)C(=O)c2ccccc2)C[C@H]2O[C@]1(C)n1c3ccccc3c3c4c(c5c6ccccc6n2c5c31)C(=O)NC4 [Midostaurin] (first compound 5 µM, partner dose 0.4 µM) it is 55.9%.

The record behind these values is the supplement of paper PMC4604168 (melanoma cell lines).
